Source: PubChem BioAssay AID1508624 (National Center for Advancing Translational Sciences (NCATS), 2021)
About 120 (0.25%) of roughly 48,000 compounds were called active. Inconclusive results (about 4%) are left out. The call rests on the fitted dose curve; in most records, active means well fitted activation curve with a large enough effect; inconclusive means small, poorly fitted or top-dose-only effect, or another doubt; inactive means no such curve, though single readings can be large or run the other way. Some of the results follow.

Test: Primary qHTS for Identification of Small Molecule Activators of Huntingtin-Antisense Promoter Activity; further: nearly all actives have a fitted effect of over 55% in size
Conditions: HEK293 HTT-AS promoter firefly luciferase reporter (activity 0% = vehicle and -100% = no light), 24 h; series mostly up to 57.5 µM; activity change, positive = activation: at the top concentration
Procedure, shortened: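 Quantitative HTS used concentration series of up to 57.5 uM final on HEK293 luciferase reporter cells, 24 h at 37 degrees C. Readout was Dual-Glo firefly luminescence.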

Activity change, positive = activation, inactive:
COc1ccc(NC(=O)c2cnc(Nc3ccc(C)c(Cl)c3)c3ccccc23)c(OC)c1 2.71%
CC(=O)Oc1ccc(C(=C2CCCCC2)c2ccc(OC(C)=O)cc2)cc1 -14.5%
CCCC(=O)N1CCc2cc(OC)c(OC)cc2C1COc1ccc2c(C)cc(=O)oc2c1 (centres undefined) 7.07%
COc1ccc2c(c1)CC(C(=O)NCCN1CCN(c3ccccc3F)CC1)CO2 (centres undefined) -18%
COc1ccc(CNc2nc(-c3ccc(OC)cc3)cc(C(F)(F)F)n2)cc1 -41.4%
COc1ccc(NC(=O)Cn2c(=O)cc(C)c3c(C)nn(C)c32)cc1 -25.1%
CCCSc1ncc(Cl)c(C(=O)Nc2ccc(S(=O)(=O)N3CCC(C)CC3)cc2)n1 -37.6%
CCOc1ccc(NC(=O)Cn2cc(C(=O)c3ccc(CC)cc3)c(=O)c3cc4c(cc32)OCO4)cc1 -18.2%
Cc1ccc(Cl)cc1N1CCN(C(=O)c2cnn(C(C)(C)C)c2C2CCN(C(=O)OC(C)(C)C)CC2)CC1 -29%
CCCCc1ccc(Nc2cc(C)nc(-n3nc(C)cc3C)n2)cc1 -10.1%
O=C(NCC(c1cccnc1)N1CCc2ccccc2C1)C(=O)Nc1ccccc1F (centres undefined) -5.05%
CCN(C(=O)CCS(=O)(=O)c1ccc2c(c1)CCN2C(C)=O)c1cccc(C(F)(F)F)c1 -18.8%
CCN1CCc2c(sc(NC(=O)c3ccc(S(=O)(=O)N(C)C4CCCCC4)cc3)c2C(N)=O)C1 -12.8%
CC(=O)O[C@]1(C(C)=O)CC[C@H]2[C@@H]3C=C(Cl)C4=CC(=O)[C@@H]5C[C@@H]5[C@]4(C)[C@H]3CC[C@@]21C -20.1%
O=C(/C=C\c1ccc2c(c1)OCO2)NC1CC(=O)N(c2ccccc2)C1 (centres undefined) -18.1%
CSc1ccc(CNC(=O)Cn2c(-c3cccs3)cc3cc(F)ccc32)cc1 -27%
Cc1cccc(C)c1Nc1c(-c2ccc(N3CCOCC3)cc2)nc2ncccn12 -10.1%
O=C(Cn1nc(Cc2ccncc2)c2ccccc2c1=O)Nc1cccc(C(F)(F)F)c1 -32.9%
CCN(CC)CCN(C(=O)c1ccco1)c1nc2c(C)c(C)ccc2s1 -12.8%
CNC(=O)c1c(NC(=O)c2cc(=O)c3cc(C)c(C)cc3o2)sc2c1CCCC2 -0.01%
Cc1ccc(CSCCC(=O)N2CCN(c3ccc(F)cc3)CC2)cc1 -23%
COc1ccccc1CNC(=O)Cn1c(-c2ccc(F)cc2)cc(C(C)=O)c1C -14.3%
Cc1ccc(-c2cc(C(F)(F)F)n3nc(-c4cccc(Br)c4)cc3n2)cc1 5.27%
CC(=O)Nc1ccc(NC(=O)CN2C(=O)CC(c3ccco3)Sc3ccccc32)cc1 (centres undefined) -11.8%
CCn1c(=O)cc(OCC(=O)N2CCN(c3ccc(C(C)=O)cc3)CC2)c2ccccc21 0.771%
CC(C)c1cc(-c2n[nH]c(=O)n2-c2ccc3c(ccn3C)c2)c(O)cc1O -59.3%
COc1ccc(N2CCN(C(=O)CN3CCSc4ccccc43)CC2)cc1 -20.4%
CC1(C)OC2CC3C4CC(F)C5=CC(=O)C=CC5(C)C4C(O)CC3(C)[C@]2(C(=O)CO)O1 (some centres undefined) -10.3%
CCCCNC(=O)CC1Nc2cc(C)c(C)cc2NC1=O (centres undefined) 7.33%
COc1ccccc1NC(=O)c1nn(C)c2c1CS(=O)(=O)c1ccccc1-2 -0.773%
CN(C)S(=O)(=O)c1ccc(C(=O)NCCSc2c(-c3ccc(Br)cc3)[nH]c3ccccc23)cc1 -28.5%
Cc1c(Cl)cccc1N1CCn2c1nc1c2c(=O)n(CC(=O)O)c(=O)n1C 3.44%
COc1ccc(Cl)cc1NC(=O)Nc1c[nH]c(=O)[nH]c1=O -0.139%
O=C(O)C1CCCN(CCC=C(c2ccccc2)c2ccccc2)C1 (centres undefined) -7.37%
O=C(NCCc1ccc(Cl)cc1)c1nnc(Cc2ccc(F)cc2)o1 7.49%
Cc1ccc(NC(=O)C2CCCN(c3ncnc4onc(C)c34)C2)c(Cl)c1 (centres undefined) -35.1%
O=C(CCSCc1ccc(Cl)cc1)NCCc1ccccc1 -1.68%
CCc1sc(Nc2cccc(Cl)c2)nc1-c1cc2cccc(OC)c2oc1=O -11.8%
Cc1c(C(=O)OCc2ccccc2)[nH]c2c1C(=O)CC(c1ccc(N(C)C)cc1)C2 (centres undefined) -11.6%
COc1ccc(NC(=O)CN2C(=O)C(C)(C)c3cc(S(=O)(=O)N4CCCCC4)ccc32)cc1Cl -24.2%
Cc1nn2c3c(cnc2c1-c1ccc(Cl)cc1)C(=O)CC(c1ccc(C(C)C)cc1)C3 (centres undefined) 3.69%
Cc1ccc(S(=O)(=O)C(CNC(=O)COc2ccccc2)c2cccs2)cc1 (centres undefined) -33.4%
COC(=O)C1=C(C)NC(=O)NC1c1cn(-c2ccccc2)nc1-c1ccc(OC)c(Br)c1 (centres undefined) -22.4%
COc1ccc(-c2ccc3ncc4c(c3c2)n(-c2ccc(N3CCNCC3)c(C(F)(F)F)c2)c(=O)n4C)cn1 -93.5%
COc1cccc(-n2c(SCC(=O)c3ccccc3)nc3c([nH]c4ccccc43)c2=O)c1 5.19%
O=c1oc2cc(O)ccc2cc1-c1nc(-c2ccc(Cl)c(Cl)c2)cs1 5.68%
CCCn1c(COc2cccc(C)c2)nc2ccccc21 -2.78%
COc1cc(C(=O)N2CCNC(=O)C2CC(=O)Nc2ccc(C)c(C)c2)cc(OC)c1OC (centres undefined) 2.27%
CCCCNc1nc2c(-c3cccc(C)c3)nnn2c2ccccc12 -1.87%
Cc1ccc(/C=C/c2onc(C)c2S(=O)(=O)N2CCC(C(=O)Nc3ccc(OC(F)(F)F)cc3)CC2)cc1 -11.8%
COc1ccc2c(c1)c1c(c(=O)n(-c3ccccc3C)c(=O)n1CC(N)=O)n2C -6.9%
CCCN(CCC)C(=O)Cn1c(=O)n(CCCCCC(=O)Nc2ccccc2)c(=O)c2sccc21 -9.98%
Cc1ccc(CNC(=O)CCc2c(C)nc3c(-c4ccc(F)cc4)c(C)nn3c2C)cc1 -11.7%
Cc1cccc(OCC(=O)Nc2cccc(C(=O)OCc3cc(=O)n4nc(C(C)C)sc4n3)c2)c1 28.7%
COc1cc2c(cc1NC(=O)COc1ccc(Br)c(C)c1)oc1ccccc12 -11.3%
CCC12CN3CC(CC)(CN(C1)C3c1cccc(OC)c1O)C2=O (centres undefined) 9.75%
COc1ccc(-c2c(C)c3ccc(O)c(CN4CCCCC4)c3oc2=O)cc1OC -8.58%
Cc1cccc(N2CCN(C(=O)c3cn(C)c4ccc(S(=O)(=O)N(C)C)cc4c3=O)CC2C)c1 (centres undefined) -0.22%
CCc1ccc(-n2c(SCc3nc(-c4cc(OC)ccc4OC)no3)nnc2-c2ccccc2)cc1 -31.9%
COc1ccc(C2=CC(c3ccccc3Cl)n3nc(-c4ccc(C)cc4)nc3N2)cc1 (centres undefined) -32.4%
CCOC(=O)c1c(NC(=O)CCCOc2ccc(C)cc2)sc2c1CCC(C)C2 (centres undefined) -20.1%
CCc1ccc(CNC(=O)c2ccc(CS(=O)c3ccc(Br)cc3)o2)cc1 (centres undefined) -23.3%
CCc1nnc(SCC(=O)Nc2ccc(Cl)cc2F)c2cc3occc3n12 -16.7%
CCOC(=O)Cn1c(=O)n(-c2ccccc2OC)c2nc(-c3ccccc3)nc(C(N)=O)c21 -17.6%
COc1ccc(-c2nc3ccccc3s2)cc1NC(=O)c1ccc(C#N)cc1F -9.62%
CCn1c(C(=O)NCc2ccc(C)cc2)cc2sc(Cl)cc21 -19.4%
COc1ccc(NC(=O)C(NC(=O)Cc2cccs2)c2ccc(OC)cc2)cc1 (centres undefined) -1.8%
Cn1c2c(c(=O)n(C)c1=O)C(c1cccc(O)c1)CC(=O)N2 (centres undefined) -0.808%
COc1cccc(NS(=O)(=O)c2ccc3[nH]c4c(c3c2)CCCCCC4)c1 -19.9%
CCc1ccc(CN(C(=O)c2ccc(OC)cc2)C2CCS(=O)(=O)C2)cc1 (centres undefined) 3.19%
COc1ccc(-c2onc(C)c2C)cc1S(=O)(=O)N1CCc2ccccc21 -54.7%
Cc1noc(C)c1S(=O)(=O)Nc1ccc(C(=O)Nc2ccc(C(C)C)cc2)cc1 -22.2%
CCOC(=O)c1ccc(NC(=O)CC2Nc3cccc4cccc(c34)NC2=O)cc1 (centres undefined) -22%
COc1c(C)cccc1C(=O)Nc1ccc(Cl)c(-c2nc3cc(C)ccc3o2)c1 -2.84%
COc1ccc(C(=O)Nc2ccc(N3CCN(c4ccccc4)CC3)c(C(=O)O)c2)cc1 24.1%
COc1ccc(-c2nc3sc(CCNC(=O)Cc4ccc(Cl)cc4)c(C)n3n2)cc1 5.35%
CC(C)CCOc1ccc(Cn2c(=O)sc3ccccc32)cc1 -10.5%
CCOc1ccc(CCNC(=O)CSc2nc3ccccc3nc2Cc2ccc(C)cc2)cc1OCC -23.1%
CC(=O)OC[C@H]1O[C@@H](n2ncc(=O)[nH]c2=O)[C@H](OC(C)=O)[C@@H]1OC(C)=O -33.3%
CCN(CC)c1ccc(C(=O)NCc2ccc3c(c2)CCN3C(=O)c2cccc(C)c2)cc1 7.8%
CCN(CC)c1ccc(NC(=O)CN(C)S(=O)(=O)c2cccc3nsnc23)c(C)c1 -18.6%
CCOc1ccc(CCNC(=O)C(CC(C)C)N2Cc3ccccc3C2=O)cc1OCC (centres undefined) -17.1%
CC(C)c1ccc(NC(=O)c2ccc3oc(=O)c(S(=O)(=O)c4ccc(F)cc4)cc3c2)cc1 -60%
CCOCCc1nn2c(=O)cc(COC(=O)COc3ccc(C)c(C)c3)nc2s1 -5.75%
COc1cn(CC(=O)Nc2c(C)cc(C)cc2C)c(CN2CCCCC2)cc1=O -5.65%
CCOc1ccc(S(=O)(=O)NCCc2csc3nc(-c4ccc(OC)c(OC)c4)nn23)cc1 -3.34%
Cc1nc(SCc2cc(=O)c3cccc(F)c3[nH]2)n[nH]1 -1.45%
CCc1ccc(NC(=O)CC2C(=O)NCCN2C(=O)c2ccccc2OC)cc1 (centres undefined) -14.6%
CC(C)c1ccc(NC(=O)CSc2ncnc3c2sc2ccccc23)cc1 -21.5%
Clc1cccc(CSc2nc(NCCc3ccccc3)c3ccccc3n2)c1 -10.9%
COc1ccccc1CNCc1ccc(C(=O)O)s1 -5.47%
COc1ccc(NC(=O)Cn2ncc3c(C)n(Cc4cccc(Cl)c4)c(C)c3c2=O)cc1 -5.78%
COc1cccc(NC(=O)CCSc2nc(-c3ccco3)cc(C(F)(F)F)n2)c1 -7.34%
CN1C[C@H](C(=O)N[C@]2(C)O[C@@]3(O)[C@@H]4CCCN4C(=O)[C@H](Cc4ccccc4)N3C2=O)C[C@@H]2c3cccc4[nH]cc(c34)C[C@H]21 -14.2%
